Results on 48 molecules are retold here after article PMC6919601, “Identification of Plasmodium dipeptidyl aminopeptidase allosteric inhibitors by high throughput screening” (PLoS ONE, 2019).

The campaign covered roughly 110,000 compounds. About 230 (0.21%) showed an effect of 50% or more. The list shows a part of the results.
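Note: 30 min substrate incubation versus DMSO and 10 µM JCP410 controls.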

DPAP1, sequence (Q8IIJ9 whole entry, looked up): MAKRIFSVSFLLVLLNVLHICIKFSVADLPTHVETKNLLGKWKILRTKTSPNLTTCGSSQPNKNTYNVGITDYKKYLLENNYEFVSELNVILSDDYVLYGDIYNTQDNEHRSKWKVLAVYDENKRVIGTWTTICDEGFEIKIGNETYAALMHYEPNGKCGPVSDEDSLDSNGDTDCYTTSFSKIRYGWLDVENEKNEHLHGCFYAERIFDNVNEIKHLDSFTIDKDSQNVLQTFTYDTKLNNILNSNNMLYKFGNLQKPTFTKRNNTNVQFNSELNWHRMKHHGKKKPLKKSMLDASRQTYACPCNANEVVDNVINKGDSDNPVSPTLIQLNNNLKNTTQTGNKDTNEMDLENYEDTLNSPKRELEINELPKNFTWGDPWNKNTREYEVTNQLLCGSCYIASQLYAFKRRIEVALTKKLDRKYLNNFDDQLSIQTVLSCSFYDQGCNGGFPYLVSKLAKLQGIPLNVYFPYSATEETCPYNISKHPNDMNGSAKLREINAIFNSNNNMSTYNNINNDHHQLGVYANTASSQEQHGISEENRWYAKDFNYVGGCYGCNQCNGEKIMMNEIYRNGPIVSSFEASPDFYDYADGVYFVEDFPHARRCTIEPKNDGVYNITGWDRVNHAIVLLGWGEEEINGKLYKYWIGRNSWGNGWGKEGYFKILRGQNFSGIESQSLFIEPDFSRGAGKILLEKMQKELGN

This assay has as its target DPAP1 (Plasmodium falciparum, UniProt Q8IIJ9). The assay is described as follows: primary screen, percent inhibition; read by cleavage of a fluorogenic dipeptide substrate; higher = more effect of the substance. Also noted: species or system P. falciparum D10 trophozoite lysates; single well.
On to `COc1ccccc1NC(=O)C1CC=CCC1C(=O)N(c1ccccc1)c1ccccc1` (stereo not drawn), for which the “% Inhibition @ 10 uM” value is -1.74%.
For `CC(C)OCCCNC(=O)C1CCN(C(=O)c2cnn(-c3ccccc3)c2-n2cccc2)CC1`, the “% Inhibition @ 10 uM” value was determined as 0.137%.
In the case of `Cc1ccc(Oc2ccc(NC(=O)c3c(C(=O)O)cccc3[N+](=O)[O-])cc2)cc1C`, the “% Inhibition @ 10 uM” value was determined as 40.1%.
`COc1cc(S(=O)(=O)NCCCN2CCOCC2)ccc1-n1cnnn1`: the “% Inhibition @ 10 uM” value is reported as -12.7%.
As to `CN(C)c1ccc(NC(=O)c2nc3ccccc3s2)cc1`, the “% Inhibition @ 10 uM” value is reported as -1.61%.
Take `CCOc1ccc(C2c3cccn3CCN2C(=S)NC(C)(C)C)cc1` (stereo not drawn): the “% Inhibition @ 10 uM” value is -8.59%.
For `Cc1nc2ccc(S(=O)(=O)NCC(=O)NCCC(C)C)cc2s1`, the “% Inhibition @ 10 uM” value is listed as -6.09%.
On to `O=C(NCCc1nc2ccccc2[nH]1)C1CCCCC1`, for which the “% Inhibition @ 10 uM” value was -0.0235%.
To `Cc1ccc(OCC(=O)Nc2ccncc2)cc1` belongs -3.52%.
In the case of `C=C(C)CN(CC)Cc1cccc([N+](=O)[O-])c1`, the “% Inhibition @ 10 uM” value is reported as -1.78%.
On to `COc1cccc(-c2nn(C)c3sc(C(=O)N4CCCC(C)C4)cc23)c1` (stereo not drawn), for which the “% Inhibition @ 10 uM” value is recorded as -4.14%.
Regarding `Cc1cc(O)c(C2=Nc3ccccc3SC(c3ccccc3O)C2)c(=O)o1` (stereo not drawn), the “% Inhibition @ 10 uM” value is on record as -2.18%.
Consider `CC/N=C1\S/C(=C\c2cn(CC)c3ccccc23)C(=O)N1CC`, for which the “% Inhibition @ 10 uM” value is reported as -8.75%.
Consider `CCn1c(S)nnc1-c1csc(C(C)C)c1`, for which the “% Inhibition @ 10 uM” value is on record as -4.84%.
Consider `COc1cccc(CO)c1OCC(=O)Nc1ccccc1`, for which the “% Inhibition @ 10 uM” value was 1.27%.
For `CCNC(=O)/C(=C\c1ccc(OC)cc1)NC(=O)c1ccc(Br)o1`, the “% Inhibition @ 10 uM” value is -2.64%.
To `CC(C)C[C@H](NC(=O)c1ccc2nc(-c3ccc[n+](C)c3)oc2c1)C(=O)NCC#N` belongs 1.7%; to `CCOc1ccc(-c2cc(NC(=O)c3noc4c3COc3ccc(C)cc3-4)on2)cc1`, -0.825%.
As to `Cc1ccc(C(=O)N/C(=C/c2ccco2)C(=O)NCC2CCCO2)cc1` (stereo not drawn), the “% Inhibition @ 10 uM” value is reported as -6.69%.
In the case of `COc1ccccc1NC(=O)c1c(-c2ccccc2)noc1C` it was -4.21%; in that of `O=C(O)c1ccc2nc(-c3ccc(-c4nc5ccc(C(=O)O)cc5o4)cc3)oc2c1`, -7.71%.
Take `O=C(O)C1=NN(c2ccccc2)C(=O)/C1=C\c1ccc2c(c1)OCO2`: the “% Inhibition @ 10 uM” value is 2.65%.
To `CCCN(CCC)S(=O)(=O)c1ccc(C(=O)Nc2nc(-c3ccc(F)cc3)cs2)cc1` belongs 2.79%; to `CCC1CCCCN1C(=O)Cn1c(SCc2cccc(C)c2)nc2ccncc21` (stereo not drawn), -0.637%.
For the molecule `Cc1nc(NCCO)nc(NCCO)c1[N+](=O)[O-]`, the “% Inhibition @ 10 uM” value is on record as -0.239%.
To `O=C(NCc1ccccc1)C(O)(c1ccc(F)cc1)c1ccc(F)cc1` belongs -2.86%; to `CN(C)c1ccc([N+](=O)[O-])c2nonc12`, 5.66%; to `COCCN1C(=O)c2ccccc2C(C(=O)NCCC2=CCCCC2)C1c1cccs1` (stereo not drawn), -7.34%.
Take `COc1ccc(OC)c(NC(=O)Cc2ccc(OC)c(OC)c2)c1`: the “% Inhibition @ 10 uM” value was -2.17%.
As for `CCOC(=O)C1=C(C)N=c2s/c(=C\c3cccnc3)c(=O)n2C1c1ccc(OC)cc1` (stereo not drawn), the “% Inhibition @ 10 uM” value was determined as 3.61%.
In the case of `Cn1c(=O)c2c(nc3n(Cc4ccccn4)c(C45CC6CC(CC(C6)C4)C5)cn23)n(C)c1=O`, the “% Inhibition @ 10 uM” value is listed as -7.46%.
To `CCOC(=O)C1=C(C)N=c2s/c(=C\c3cccc(O)c3)c(=O)n2C1c1ccccc1Cl` (stereo not drawn) belongs -5.28%.
On to `Cc1ccc(Cn2nc(C)c(NC(=O)c3cc4n(n3)C(C(F)(F)F)CC(c3ccco3)N4)c2C)cc1` (stereo not drawn), for which the “% Inhibition @ 10 uM” value is listed as 0.778%.
Turning to `CCOC(=O)c1cc(-c2ccccc2)sc1NC(=O)CC`, the “% Inhibition @ 10 uM” value was -2.87%.
Consider `Cc1c(CN(C)C(=O)c2cc3nc(-c4cccs4)cc(C(F)(F)F)n3n2)cnn1C`, for which the “% Inhibition @ 10 uM” value is given as -1.35%.
For the molecule `COc1ccc(S(=O)(=O)Nc2ccc(-c3cn4ccsc4n3)cc2)cc1`, the “% Inhibition @ 10 uM” value worked out at 0.726%.
On to `CCCNC(=O)CCc1nc(-c2ccc(C)cc2)no1`, for which the “% Inhibition @ 10 uM” value was -2.21%.
Turning to `NC(=O)C1CCN(C(=O)CN2CCN(Cc3ccc4c(c3)OCO4)CC2)CC1`, the “% Inhibition @ 10 uM” value is recorded as -5.51%.
With `COc1ccc(-c2noc(CN(C)C(=O)c3c(-c4ccccc4Cl)noc3C)n2)cc1`, the “% Inhibition @ 10 uM” value was found to be 4.31%.
Consider `CN(CC(=O)Nc1ccccc1Sc1ccccc1)S(=O)(=O)c1ccccc1`, for which the “% Inhibition @ 10 uM” value is recorded as -3.26%.
On to `Cc1cc(C)n2nc(N3C(=O)CCC3=O)nc2n1`, for which the “% Inhibition @ 10 uM” value worked out at 6.7%.
On to `CCN(c1ccccc1)S(=O)(=O)c1ccc(NC(=O)Nc2ccccc2)cc1`, for which the “% Inhibition @ 10 uM” value is reported as -1.44%.
With `COC(=O)c1cc(S(=O)(=O)NCC(C)c2ccccc2)cn1C` (stereo not drawn), the “% Inhibition @ 10 uM” value is -6.86%.
With `CCOc1ccccc1/C=C(\C#N)c1nc(-c2ccc([N+](=O)[O-])cc2)cs1`, the “% Inhibition @ 10 uM” value is on record as -4.11%.
With `Cc1cc(C)c(C)c(S(=O)(=O)N2CCN(C(=O)c3ccco3)CC2)c1C`, the “% Inhibition @ 10 uM” value was -2.97%.
Regarding `COc1ccccc1C(=O)Nc1cc(-c2nc3cc(C)ccc3o2)ccc1Cl`, the “% Inhibition @ 10 uM” value was -5.96%.
To `CC(C)C1NC(=S)N(c2ccccc2)N1` (stereo not drawn) belongs 6.4%; to `Cc1ccc(O)c(-n2cc3c(c2-c2ccccc2)c(=O)n(C)c(=O)n3C)c1`, -3.12%.
